Assay results: US7517874B2 (priority 2007, dated 2009)
Where two headings read alike, the source gives them in different places.

Target: human CB2 receptor (hCB2) (Homo sapiens, UniProt P34972)
Assay: cell-based
Assay type: cell-based
Details: for +/− HCB2: agonist or inverse agonist at hCB2
[1] = groups >100 nM-10 μM and >10 μM, cAMP, CHO-K1 hCB2, read-out: EC50 HCB2

Sequence of human CB2 receptor (hCB2) (P34972 whole entry): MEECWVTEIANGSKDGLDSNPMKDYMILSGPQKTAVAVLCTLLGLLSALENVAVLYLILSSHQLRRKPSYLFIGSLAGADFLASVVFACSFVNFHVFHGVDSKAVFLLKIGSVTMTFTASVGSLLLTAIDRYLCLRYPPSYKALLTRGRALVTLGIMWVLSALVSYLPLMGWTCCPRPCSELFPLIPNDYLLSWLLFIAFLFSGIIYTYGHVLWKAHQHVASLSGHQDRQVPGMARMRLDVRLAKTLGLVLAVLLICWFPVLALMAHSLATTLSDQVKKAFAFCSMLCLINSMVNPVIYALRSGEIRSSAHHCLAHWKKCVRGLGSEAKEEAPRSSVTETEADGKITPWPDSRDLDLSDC

## CNC(=O)[C@H](CC(C)C)NC(=O)c1nc(-c2cc(Cl)c(F)cc2F)n2c1CN(C)CCC2 [Compound 539, (S)-3-(5-chloro-2,4-difluorophenyl)-8-methyl-N-(4-methyl-1-(methylamino)-1-oxopentan-2-yl)-6,7,8,9-tetrahydro-5H-imidazo[1,5-a][1,4]diazepine-1-carboxamide]
  +/− HCB2: +

## CCN1CCn2c(-c3ccccc3)nc(C(=O)N[C@@H](C)c3ccccc3)c2C1 [Compound 147, (S)-7-ethyl-3-phenyl-N-(1-phenylethyl)-5,6,7,8-tetrahydroimidazo[1,5-a]pyrazine-1-carboxamide]
  EC50: > 10000 nM

## CN1CCn2c(-c3ccc(Cl)cc3F)nc(C(=O)NC3CCN(S(C)(=O)=O)CC3)c2C1 [Compound 213, 3-(4-chloro-2-fluorophenyl)-7-methyl-N-(1-(methylsulfonyl)piperidin-4-yl)-5,6,7,8-tetrahydroimidazo[1,5-a]pyrazine-1-carboxamide]
[1]
  EC50: > 10000 nM

## CCCNC(=O)[C@@H](NC(=O)c1nc(-c2ccccc2)n2c1CN(C)CCC2)C(C)(C)C [Compound 473, (S)-N-(3,3-dimethyl-1-oxo-1-(propylamino)butan-2-yl)-8-methyl-3-phenyl-6,7,8,9-tetrahydro-5H-imidazo[1,5-a][1,4]diazepine-1-carboxamide]
  +/− HCB2: +

## CNC(=O)[C@@H](NC(=O)c1nc(-c2cccs2)n2c1CN(C)CCC2)C(C)(C)C [Compound 349, (S)-N-(3,3-dimethyl-1-(methylamino)-1-oxobutan-2-yl)-8-methyl-3-(thiophen-2-yl)-6,7,8,9-tetrahydro-5H-imidazo[1,5-a][1,4]diazepine-1-carboxamide]
  +/− HCB2: +

## CNC(=O)[C@H](CC(C)C)NC(=O)c1nc(-c2ccc(F)c(F)c2)n2c1CN(C)CCC2 [Compound 535, (S)-3-(3,4-difluorophenyl)-8-methyl-N-(4-methyl-1-(methylamino)-1-oxopentan-2-yl)-6,7,8,9-tetrahydro-5H-imidazo[1,5-a][1,4]diazepine-1-carboxamide]
  +/− HCB2: +

## COC(=O)N1CCn2c(-c3ccccc3)nc(C(=O)NN3CCCCC3)c2C1 [Compound 182, methyl 3-phenyl-1-(piperidin-1-ylcarbamoyl)-5,6-dihydroimidazo[1,5-a]pyrazine-7(8H)-carboxylate]
[1]
  EC50: > 10000 nM

## COC(=O)N1CCn2c(-c3ccccc3)nc(C(=O)N[C@H](C)C3CCCCC3)c2C1 [Compound 185, (R)-methyl 1-(1-cyclohexylethylcarbamoyl)-3-phenyl-5,6-dihydroimidazo[1,5-a]pyrazine-7(8H)-carboxylate]
  EC50: > 10000 nM

## CNC(=O)[C@@H](NC(=O)c1nc(-c2ccc3ccccc3c2)n2c1CN(C)CCC2)C(C)(C)C [Compound 380, (S)-N-(3,3-dimethyl-1-(methylamino)-1-oxobutan-2-yl)-8-methyl-3-(naphthalen-2-yl)-6,7,8,9-tetrahydro-5H-imidazo[1,5-a][1,4]diazepine-1-carboxamide]
  +/− HCB2: +

## CN1CCn2c(-c3ccc(Cl)cc3F)nc(C(=O)N3CCN(C(=O)c4ccccc4)CC3)c2C1 [Compound 210, (4-benzoylpiperazin-1-yl)(3-(4-chloro-2-fluorophenyl)-7-methyl-5,6,7,8-tetrahydroimidazo[1,5-a]pyrazin-1-yl)methanone]
[1]
  EC50: > 10000 nM

## CCC(=O)N1CCn2c(-c3ccccc3)nc(C(=O)N[C@H](C(=O)NC)C(C)(C)C)c2C1 [Compound 189, (S)-N-(3,3-dimethyl-1-(methylamino)-1-oxobutan-2-yl)-3-phenyl-7-propionyl-5,6,7,8-tetrahydroimidazo[1,5-a]pyrazine-1-carboxamide]
  +/− HCB2: +

## CNC(=O)[C@@H](NC(=O)c1nc(-c2ccc(F)c(Cl)c2)n2c1CN(C)CCC2)C(C)(C)C [Compound 372, (S)-3-(3-chloro-4-fluorophenyl)-N-(3,3-dimethyl-1-(methylamino)-1-oxobutan-2-yl)-8-methyl-6,7,8,9-tetrahydro-5H-imidazo[1,5-a][1,4]diazepine-1-carboxamide]
  +/− HCB2: +

## CNC(=O)[C@H](C)NC(=O)c1nc(-c2ccccc2)n2c1CNCC2 [Compound 28, (S)-N-(1-(methylamino)-1-oxopropan-2-yl)-3-phenyl-5,6,7,8-tetrahydroimidazo[1,5-a]pyrazine-1-carboxamide]
[1]
  EC50: > 10000 nM

## CNC(=O)[C@@H](NC(=O)c1nc(-c2ccc(F)c(C(=O)N3CCOCC3)c2)n2c1CN(C)CCC2)C(C)(C)C [Compound 389, (S)-N-(3,3-dimethyl-1-(methylamino)-1-oxobutan-2-yl)-3-(4-fluoro-3-(morpholine-4-carbonyl)phenyl)-8-methyl-6,7,8,9-tetrahydro-5H-imidazo[1,5-a][1,4]diazepine-1-carboxamide]
  EC50: > 10000 nM

## CC(C)C[C@H](NC(=O)c1nc(-c2cc(F)ccc2F)n2c1CN(C)CCC2)C(N)=O [Compound 567, (S)-N-(1-amino-4-methyl-1-oxopentan-2-yl)-3-(2,5-difluorophenyl)-8-methyl-6,7,8,9-tetrahydro-5H-imidazo[1,5-a][1,4]diazepine-1-carboxamide]
  +/− HCB2: +

## CNC(=O)[C@@H](NC(=O)c1nc(-c2ccccc2)n2c1CN(CC(C)(C)C)CC2)C(C)(C)C [Compound 55, (S)-N-(3,3-dimethyl-1-(methylamino)-1-oxobutan-2-yl)-7-neopentyl-3-phenyl-5,6,7,8-tetrahydroimidazo[1,5-a]pyrazine-1-carboxamide]
  +/− HCB2: −

## CNC(=O)[C@@H](NC(=O)c1nc(-c2ccsc2)n2c1CN(S(=O)(=O)c1ccc(F)cc1)CC2)C(C)(C)C [Compound 109, (S)-N-(3,3-dimethyl-1-(methylamino)-1-oxobutan-2-yl)-7-(4-fluorophenylsulfonyl)-3-(thiophen-3-yl)-5,6,7,8-tetrahydroimidazo[1,5-a]pyrazine-1-carboxamide]
  EC50: > 10000 nM

## CNC(=O)[C@H](CC(C)C)NC(=O)c1nc(-c2ccc(Cl)cc2F)n2c1CN(C)CC2 [Compound 276, (S)-3-(4-chloro-2-fluorophenyl)-7-methyl-N-(4-methyl-1-(methylamino)-1-oxopentan-2-yl)-5,6,7,8-tetrahydroimidazo[1,5-a]pyrazine-1-carboxamide]
  +/− HCB2: +

## CC(C)CNC(=O)[C@@H](NC(=O)c1nc(-c2ccccc2)n2c1CN(C)CCC2)C(C)(C)C [Compound 474, (S)-N-(1-(isobutylamino)-3,3-dimethyl-1-oxobutan-2-yl)-8-methyl-3-phenyl-6,7,8,9-tetrahydro-5H-imidazo[1,5-a][1,4]diazepine-1-carboxamide]
  +/− HCB2: +

## CNC(=O)[C@@H](NC(=O)c1nc(-c2ccccc2)n2c1CN(S(=O)(=O)c1ccc(C(F)(F)F)cc1)CC2)C(C)(C)C [Compound 107, (S)-N-(3,3-dimethyl-1-(methylamino)-1-oxobutan-2-yl)-3-phenyl-7-(4-(trifluoromethyl)phenylsulfonyl)-5,6,7,8-tetrahydroimidazo[1,5-a]pyrazine-1-carboxamide]
  EC50: > 10000 nM

## CNC(=O)[C@@H](NC(=O)c1nc(-c2ccccc2)n2c1CN(S(=O)(=O)CC(C)C)CC2)C(C)(C)C [Compound 95, (S)-N-(3,3-dimethyl-1-(methylamino)-1-oxobutan-2-yl)-7-(isobutylsulfonyl)-3-phenyl-5,6,7,8-tetrahydroimidazo[1,5-a]pyrazine-1-carboxamide]
  +/− HCB2: −

## CNC(=O)[C@@H](NC(=O)c1nc(C2CCCCC2)n2c1CN(C)CCC2)C(C)(C)C [Compound 487, (S)-3-cyclohexyl-N-(3,3-dimethyl-1-(methylamino)-1-oxobutan-2-yl)-8-methyl-6,7,8,9-tetrahydro-5H-imidazo[1,5-a][1,4]diazepine-1-carboxamide]
  +/− HCB2: +

## CC(C)=CC(=O)c1nc(-c2ccccc2)n2c1CN(C)CC2 [Compound 293, 3-methyl-1-(7-methyl-3-phenyl-5,6,7,8-tetrahydroimidazo[1,5-a]pyrazin-1-yl)but-2-en-1-one]
[1]
  EC50: > 10000 nM

## CNC(=O)[C@H](CC(C)C)NC(=O)c1nc(-c2cc(Cl)ccc2F)n2c1CN(C)CCC2 [Compound 536, (S)-3-(5-chloro-2-fluorophenyl)-8-methyl-N-(4-methyl-1-(methylamino)-1-oxopentan-2-yl)-6,7,8,9-tetrahydro-5H-imidazo[1,5-a][1,4]diazepine-1-carboxamide]
  +/− HCB2: +

## CC(C)CN1CCn2c(-c3ccccc3)nc(C(=O)N[C@H](CO)C(C)(C)C)c2C1 [Compound 60, (S)-N-(1-hydroxy-3,3-dimethylbutan-2-yl)-7-isobutyl-3-phenyl-5,6,7,8-tetrahydroimidazo[1,5-a]pyrazine-1-carboxamide]
  EC50: > 10000 nM

## CNC(=O)[C@@H](NC(=O)c1nc(C2=CCC(C)CC2)n2c1CN(C)CCC2)C(C)(C)C (stereo partly drawn) [Compound 449, N-((S)-3,3-dimethyl-1-(methylamino)-1-oxobutan-2-yl)-8-methyl-3-(4-methylcyclohex-1-enyl)-6,7,8,9-tetrahydro-5H-imidazo[1,5-a][1,4]diazepine-1-carboxamide]
  +/− HCB2: +

## CNC(=O)[C@@H](NC(=O)c1nc(-c2ccccc2)n2c1C[N+](C)(C)CCC2)C(C)(C)C [Compound 481, (S)-1-(3,3-dimethyl-1-(methylamino)-1-oxobutan-2-ylcarbamoyl)-8,8-dimethyl-3-phenyl-6,7,8,9-tetrahydro-5H-imidazo[1,5-a][1,4]diazepin-8-ium]
  EC50: > 10000 nM

## CCN1CCn2c(-c3ccc(Cl)cc3)nc(C(=O)N[C@H](CO)C(C)(C)C)c2C1 [Compound 161, (S)-3-(4-chlorophenyl)-7-ethyl-N-(1-hydroxy-3,3-dimethylbutan-2-yl)-5,6,7,8-tetrahydroimidazo[1,5-a]pyrazine-1-carboxamide]
  +/− HCB2: +

## CNC(=O)[C@@H](NC(=O)c1nc(CCCN2CCCC2)n2c1CN(C)CC2)C(C)(C)C [Compound 308, (S)-N-(3,3-dimethyl-1-(methylamino)-1-oxobutan-2-yl)-7-methyl-3-(3-(pyrrolidin-1-yl)propyl)-5,6,7,8-tetrahydroimidazo[1,5-a]pyrazine-1-carboxamide]
  +/− HCB2: +
